In ChEMBL document CHEMBL4888484, “Replenishing the malaria drug discovery pipeline: Screening and hit evaluation of the MMV Hit Generation Library 1 (HGL1) against asexual blood stage Plasmodium falciparum ,using a nano luciferase reporter read-out” (2022):
About 540 (0.36%) of roughly 150,000 compounds showed an effect of 50% or more. The list shows a part of the results.

test system: Plasmodium falciparum; experiment: Primary screen in NF54 nanoGlo assay, in single point, at 2uM, 72h; a lower Z score goes with more inhibition; format: functional, Erythrocyte; conditions: timepoint 72 hour

Structure (SMILES)	% Inhibition	Z score
Cc1ccc(OCCCn2cnc3c(N)nc(N)nc32)cc1C	-5%	0.83
C#CCN1CCC(C(=O)N2CC(S(=O)(=O)N3CCc4ccccc43)C2)CC1	5%	-0.52
Cc1ncc2n1CC[C@H](C(=O)N(C)CC1(O)CCC1)C2	-6%	1.14
CCN(CC(=O)Nc1c(C)cccc1C)C(=O)C(F)(F)C(F)F	-2%	0.3
CC1CCN(CC(=O)Nc2ccc3c(c2)OCCCO3)CC1	1%	-0.14
CC(=O)Oc1c(S(=O)(=O)c2ccccc2)c(C)nn1-c1ccc(C)cc1C	-9%	1.34
CNC(=O)c1cccc(COc2c(C)nn(C)c2C)c1	-7%	0.99
Cc1nn(-c2ccc(Br)cc2)c(NC(=O)N2CCC[C@@H]2CO)c1C	-12%	1.33
Cc1nonc1CN(C)c1nccc(-c2c(C)nn(C)c2C)n1	2%	-0.24
CN1C(=O)CO[C@H]2CN(C(=O)c3ccccc3)C[C@H]21	6%	-0.68
Cc1ccc(CS(=O)(=O)[C@@H](C)C(=O)Nc2cc(C)on2)cc1	-8%	0.68
Cc1cc(C(=O)Nc2ccc(F)cc2)c2c(C)nn(-c3cccc(F)c3)c2n1	-7%	0.66
CN1C(=O)c2ccccc2O[C@H]2CN(Cc3ccc4c(c3)OCO4)C[C@H]21	-1%	0.22
C[C@H](Oc1ccc(F)cc1)c1nnc(-c2cnc3onc(C4CC4)c3c2)o1	-5%	0.74
Cc1c(-c2noc(C(=O)NCCc3ccc(Cl)cc3)n2)oc2ccccc12	1%	-0.2
CCCn1nnnc1COC(=O)CCNC(=O)c1ccccc1C	3%	-0.48
CN1CCCC[C@@H]1Cc1ncnc2sccc12	1%	-0.12
O=C(NCc1ccccc1F)c1ccc(CN2CC(=O)N3CCC[C@H]3C2=O)cc1	-11%	2.15
CC[C@H](C)N(Cc1csc(COc2cc(C)cc(C)c2)n1)C(=O)c1ccc2c(c1)OCO2	-9%	0.96
CCCN(CCC(=O)Nc1cccc(Br)c1)CC(=O)O	-10%	1.13
CC(C)[C@@H](NS(=O)(=O)C1CC1)c1nc(-c2ccn(C)n2)no1	-1%	0.11
Cc1ccncc1CNC(=O)NC[C@H]1CN(C)C[C@@H]1c1ccccc1	-3%	0.53

Structure (SMILES)	% Inhibition	Z score
C[C@@H](c1ccncc1)N(C)CCCc1ccc2c(c1)CCO2	-3%	0.33
Cc1ncccc1C(=O)Nc1cccc(Oc2cccnn2)c1	37%	-5.37
CCC1CC(C(=O)N[C@H]2[C@@H]3CN(Cc4ccc(CC(C)C)cc4)C[C@@H]32)CCO1 (stereo partly specified)	-4%	0.64
Cc1ccc(CNC(=O)NC2CCCCC2)n1C	11%	-1.32
COc1cc(Cl)c(CN(C)CC2(C)COC2)c(OC)c1	-5%	1.01
O=C(O)Cc1sc(NCc2ccco2)nc1-c1ccc(Cl)cc1	13%	-1.49
Cc1cccc(-c2nc3nc(C)c(CC(=O)N4CCCC4)c(C)n3n2)c1	-13%	1.53
O=C(Nc1cncc(F)c1)N1CCC(OC2CCC2)CC1	-6%	1.19
CCCNC(=O)C[C@@H]1C[C@H]2O[C@H](CNCc3cccnc3OC)[C@@H](O)[C@H]2O1	4%	-0.58
O=C(NC1CCCCCCC1)C1CCC1	-10%	1.32
COc1cc(C)ccc1Oc1nc(C)nc(N(C)Cc2ccccc2)c1N	-1%	0.22
COc1cc(OC)cc(C(=O)Nc2c(C(=O)N3CCC(C)CC3)oc3ccccc23)c1	-10%	1.47
Cc1ccn2nc(C(=O)N3CCCNCC3)cc2c1	-2%	0.3
CC(C)c1cccc(-n2cc(O)c(C(=O)N3CCN(c4ccccc4)CC3)n2)c1	6%	-1.29
CCCCCOCC(=O)Nc1nc(C)nn1CC	-5%	0.67
Cc1cccc(C)c1NC(=O)c1c(-c2ccccc2)c(-c2ccccc2)n[nH]c1=O	3%	-0.39
CC(C)(C)n1cc(C(=O)N2CCc3cc(F)c(F)cc32)nn1	-5%	0.4
Cc1cnn(Cc2nnc(-c3ccccc3)o2)c(=O)c1	-31%	3.58
CC[C@@H](C(=O)N(CC)CCOc1ccc(C)cc1)N(C)CC	0%	-0.03
Cc1c(C)n(C[C@@H](O)Cn2ccnc2C)c2c(Cl)cccc12	-5%	0.7
CCCn1cc(CNC(=O)c2cc(CC(C)C)no2)cn1	-22%	3.11
